Laboratory results from PubChem BioAssay (NCI).
Some compounds were tested as several samples or in several runs, with calls that do not always agree.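 Percent growth is the endpoint: 0 to 100 indicates growth inhibition (40 means 60% inhibition), 0 means no net growth, and negative values indicate cell death.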 Not every entry of the source has a single result; some have several. They are shown here; other results are not. Rule for the calls: active = growth percent below 10; inactive = the rest. The source may hold further records. The screen tested this drug many times, at its own concentration, as given; one value stands for one run. Marks such as (2×) stand for listed records that agree.

Test system: UACC-62 melanoma
Experiment: NCI-60 one-dose screen, 48 h (100 = growth as untreated, 0 = no growth, -100 = all killed)

Compound: COc1cccc2c1C(=O)c1c(O)c3c(c(O)c1C2=O)C[C@@](O)(C(=O)CO)C[C@@H]3OC1CC(N)C(O)C(C)O1 (stereo partly specified)
- growth (0.25 µM, runs of 2015): active: 3.48, -2.32, 1.21 (2×), 7.6, 3.1, 5.95, -6.92, -11, -8.06, -10.6, 7.66, -8.67, 8.28, 5.59, 7.18, 5.25, 7.53, 2.04, 1.07, 0.906, -0.368, 5.97, 3.82, 9.29, 7.44, 5.52, -4.56, 4.45, 9.11, 9.9, -3.88, -2.41, 5.9, 7.52, 5.09% and inactive: 24.3, 10.2, 30 (2×), 26.2, 12.4, 32.2, 10.4, 15 (2×), 16.1 (2×), 12.5, 11.1 (2×), 27.4, 30.2, 29.9, 17.1, 16.3, 26.7, 32.7, 13.7, 22.5, 18.8, 13.6, 20.9, 43.6, 23.4, 30.9, 14.1, 21.1, 25.2, 19.8, 19.9, 13.3, 47, 37.2, 40.3%
- growth (0.25 µM, runs of 2016): inactive: 18.3, 16.5, 12.5, 37.6, 44.4, 40.4, 35.4, 37.1, 26.3, 34.8 (2×), 22.3, 27.7, 17.1, 25.7 (2×), 29.6, 14.6, 28.2, 35.7, 32.9, 19.3 (2×), 19.5 (3×), 18.7, 29.4, 30.8 (2×), 23.6, 25.8, 19.7, 15.6, 19.6, 17.4, 24.1, 13.9, 20.8, 38.3, 43.2, 41.2, 31.7, 41.5, 40.8, 29.3 (2×), 33.6, 24.2, 32.1, 16.1, 22.5, 27.9 (2×), 34.9 (2×), 31, 37.5, 27.4, 24.5 (2×), 21.5, 26.9, 41, 30.9, 35.6, 44.8, 38.9, 45.4, 43, 38.7, 39.3, 41.9, 42.5, 39.7, 30, 28.4, 30.2, 30.3, 25.6, 33.7, 32.8% and active: 9.18%
- growth (0.25 µM, runs of 2017): inactive: 21.6, 24.9, 12.1, 14.7, 21 (2×), 18.6 (2×), 13.5, 22.4, 18.3 (2×), 22.2, 21.3 (2×), 12.5, 16.4, 23.2, 17.1, 11.7 (2×), 19.6 (2×), 13.3, 18, 14.2, 15.2, 15.9, 20.3 (2×), 11.9, 20.6, 32.5, 17.4, 24, 20.5, 18.5, 28.2, 31.9, 24.3, 19.7 (2×), 20.2, 21.5, 29.9, 11.3, 30.7 (2×), 35, 26.2, 19.3 (2×), 42.2, 44.8, 14, 23.8, 23.1, 15.8, 21.8, 15.7, 13.7, 26.8, 13.8, 16.1, 31.4% and active: 7.97, 9.71, 6.27, 8.09, 9.22, 9.2%
- growth (0.25 µM, runs of 2018): inactive: 29.5, 35.7, 19.8 (2×), 16.3, 15.6, 17.2, 12.4, 13, 18, 14.4, 16.4, 24.9, 11.9, 15.8, 24.5 (2×), 33.8, 29.8 (2×), 15.2, 15.7, 20.2, 21.8, 18.8, 10.9, 24.3, 27.9, 10.4, 14.6, 26.1, 12.2, 19.3, 35.1, 32.5, 27.4, 21.4 (2×), 26.2, 20.7, 17.1 (2×), 21, 22.9, 20, 31.3, 33.1, 33.5, 21.5% and active: 8.46%, 8.34%
- growth (0.25 µM, runs of 2019): inactive: 13.4, 16.1 (2×), 16.3, 27.2 (2×), 32.9, 21.5, 23.4, 18.9, 29.9, 30.1, 30.3, 13.7, 10, 25.7, 12.8, 32, 29.5, 22.3 (2×), 21.4, 23.1, 23.7, 27.4, 19.2, 18.8, 24.3, 22.2, 20.2, 18.6, 19.3, 21.1, 32.5, 24.4, 26.8, 21.9, 17, 15.4% and active: 7.05, -7.73, -0.145, 5.99, 7.83, 6.16, 5.53, 5.8%
- growth (0.25 µM, runs of 2020): inactive: 26.8, 32.5, 30.4, 18, 25.7, 30, 28.2, 23.6, 35.7, 18.5, 25.8, 13, 25.5, 26.5, 25.6, 35, 43.4, 22.2, 32.9, 36.8, 46.3%
- growth (0.25 µM, runs of 2021): inactive: 23.9, 37.1, 27.5, 19.3, 23.8, 25.7, 29.8, 16.8 (3×), 13.3, 24.3, 20.2, 17, 20.8 (2×), 18.6, 17.9, 21.4, 10.1, 14.3 (2×), 11.8, 15.1, 15, 24.2, 27.8, 27.2, 28.9, 32.3, 26.7, 13.1, 23, 19.8, 22.9, 26, 15.9, 14.6, 22.7, 19.1, 30.9, 16.3, 32, 23.4% (2×) and active: 6.29%
- growth (0.25 µM, runs of 2022): active: -65.4, -65, -91.1, 3.5, -38.1, 0.44, -7.14, 3.37, -2.2, 7.3, 6.52, 9.65, 0.399, 2.05, -2.17, 2.62, 5.03, 9.51, 6.06% and inactive: 12, 11.9, 12.3, 20, 38.9, 46.4, 10.6, 47.6, 37.1, 48%
- growth (25 µM, runs of 1991): active: 8.49, -77.3, -96.4, -100, -85.6, -70.1, -86.4, -88.6, -64.4, -98.2, -84, -71.7, -67.2, -90.2, -96, -97.8% and inactive: 18.6%
- growth (25 µM, runs of 1992): active: -83.5, -63.8, -77.7, -91.6 (2×), -62.1, -99.5, -99.8 (3×), -63.9 (2×), -48.4, -71.6, -77, -61.4, -88.6, -93 (2×), -92.5, -96.6 (2×), -97.4, -99.3 (4×), -43.2, -72.2 (3×), -94.5 (2×), -89.8, -93.4, -66, -90.2, -80.3, -73.2, -55.9, -92.9, -97, -100 (7×), -62.7, -93.2, -95.4 (3×), -95.1, -91.9, -71.9, -87.2, -85.8, -90.3, -81.3, -89.5, -70.1 (2×), -94.7, -95.7, -94.9, -80.2, -79.9, -83, -48.1, -92.2 (2×), -71.4, -52.1 (2×), -91.1, -93.3, -97.9, -86.6, -88.2, -98.6, -69.9, -83.2, -70.8, -67.3, -93.8, -96, -97.2, -84.6, -0.502, 0.925, 0.524, -61.6, -60.7, -88.3 (2×), -74.7, -63.1, -69.3, -93.9, -38.5, -93.5, -99.6, -89.7, -66.2, -68.3, -91.3, -98.2, -47.1, -74.5, -59.3, -89.3, -96.9, -60.1, -91.4, -81.8, -90.7, -97.8, -68, -98% and inactive: 103%
- growth (25 µM, runs of 1993): active: -86.8 (2×), -58.5 (2×), -12.5, -84.5, -97.1, -37.2, -59, -65.5, -89.5, -99.4, -34.6, -53.8 (2×), -82.6, -60.8, -79, -74.5, -61.8, -94.4, -87.8, -80.8, 8.96, -50.4, -68.2, -74.6, -6.42, -73.6, -44.3, -46.7, -50, -80.5, -73.4, -81.8, -96.7, -84.6, -79.5, -99.2, -59.5, -59.1, -87.9, -16.6, -66.7, -88.3%
